Measurements taken from patent EP4763988A1 (Minghui Pharmaceutical (Hangzhou) Ltd., dated 2025).
Where two headings read alike, the source gives them in different places.

T1: Human CDCP1, His Tag (KACTUS, Cat.No. CDC-HM101) (human, UniProt Q9H5V8 30-667, limits assumed)
T1 construct: Bought protein coated on ELISA plates; also called human CDCP1 antigen; CDCP1 antigen; not shown: His tag
T1 sequence (looked up): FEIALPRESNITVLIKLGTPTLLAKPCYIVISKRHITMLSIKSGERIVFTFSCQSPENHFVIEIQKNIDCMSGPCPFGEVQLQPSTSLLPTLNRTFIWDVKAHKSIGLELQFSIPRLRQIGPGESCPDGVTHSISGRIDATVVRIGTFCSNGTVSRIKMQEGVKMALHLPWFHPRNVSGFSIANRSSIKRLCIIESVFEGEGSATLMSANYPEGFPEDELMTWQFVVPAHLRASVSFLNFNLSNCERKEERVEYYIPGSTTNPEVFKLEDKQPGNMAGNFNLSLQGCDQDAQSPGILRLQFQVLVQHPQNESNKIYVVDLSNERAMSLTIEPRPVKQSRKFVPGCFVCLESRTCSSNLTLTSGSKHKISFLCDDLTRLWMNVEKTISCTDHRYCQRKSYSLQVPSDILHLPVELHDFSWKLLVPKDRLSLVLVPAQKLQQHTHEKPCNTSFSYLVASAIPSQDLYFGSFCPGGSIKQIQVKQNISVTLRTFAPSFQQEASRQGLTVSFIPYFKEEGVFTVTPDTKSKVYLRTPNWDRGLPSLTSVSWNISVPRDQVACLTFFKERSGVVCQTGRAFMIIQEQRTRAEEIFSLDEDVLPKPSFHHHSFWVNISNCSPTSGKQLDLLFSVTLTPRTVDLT

T2: human CDCP1 endogenously expressed on tumor cells (HCT116, SW480, HT-29, LNCaP) (human, UniProt Q9H5V8 30-836)
T2 construct: whole, on cells; also called fl-CDCP1
T2 sequence (looked up): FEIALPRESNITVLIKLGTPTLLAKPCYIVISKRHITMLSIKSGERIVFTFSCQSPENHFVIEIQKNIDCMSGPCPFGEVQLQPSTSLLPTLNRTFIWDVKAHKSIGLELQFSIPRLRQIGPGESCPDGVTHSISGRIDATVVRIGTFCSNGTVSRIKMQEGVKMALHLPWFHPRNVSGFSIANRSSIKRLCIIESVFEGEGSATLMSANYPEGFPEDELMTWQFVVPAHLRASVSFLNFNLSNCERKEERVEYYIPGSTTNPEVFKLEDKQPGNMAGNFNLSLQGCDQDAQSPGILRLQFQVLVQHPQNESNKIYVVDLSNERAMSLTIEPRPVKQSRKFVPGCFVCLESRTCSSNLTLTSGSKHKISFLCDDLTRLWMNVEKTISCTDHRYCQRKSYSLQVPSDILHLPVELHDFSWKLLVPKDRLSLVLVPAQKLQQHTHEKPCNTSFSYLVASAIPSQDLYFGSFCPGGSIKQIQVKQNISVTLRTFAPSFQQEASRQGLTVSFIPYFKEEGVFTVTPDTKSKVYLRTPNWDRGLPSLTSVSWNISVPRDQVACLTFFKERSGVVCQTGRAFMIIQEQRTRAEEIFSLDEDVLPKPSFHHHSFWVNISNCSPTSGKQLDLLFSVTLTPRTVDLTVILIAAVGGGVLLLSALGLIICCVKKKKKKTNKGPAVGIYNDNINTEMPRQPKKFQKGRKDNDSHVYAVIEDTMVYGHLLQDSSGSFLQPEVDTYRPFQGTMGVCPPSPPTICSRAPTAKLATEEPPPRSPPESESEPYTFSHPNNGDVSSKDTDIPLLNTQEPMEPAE

T3: rhesus monkey CDCP1, His Tag (KACTUS, Cat.No. CDC-CM101) (rhesus monkey, UniProt F6TPM5 30-667)
T3 construct: also called Rhesus monkey CDCP1 antigen; not shown: His tag
T3 sequence: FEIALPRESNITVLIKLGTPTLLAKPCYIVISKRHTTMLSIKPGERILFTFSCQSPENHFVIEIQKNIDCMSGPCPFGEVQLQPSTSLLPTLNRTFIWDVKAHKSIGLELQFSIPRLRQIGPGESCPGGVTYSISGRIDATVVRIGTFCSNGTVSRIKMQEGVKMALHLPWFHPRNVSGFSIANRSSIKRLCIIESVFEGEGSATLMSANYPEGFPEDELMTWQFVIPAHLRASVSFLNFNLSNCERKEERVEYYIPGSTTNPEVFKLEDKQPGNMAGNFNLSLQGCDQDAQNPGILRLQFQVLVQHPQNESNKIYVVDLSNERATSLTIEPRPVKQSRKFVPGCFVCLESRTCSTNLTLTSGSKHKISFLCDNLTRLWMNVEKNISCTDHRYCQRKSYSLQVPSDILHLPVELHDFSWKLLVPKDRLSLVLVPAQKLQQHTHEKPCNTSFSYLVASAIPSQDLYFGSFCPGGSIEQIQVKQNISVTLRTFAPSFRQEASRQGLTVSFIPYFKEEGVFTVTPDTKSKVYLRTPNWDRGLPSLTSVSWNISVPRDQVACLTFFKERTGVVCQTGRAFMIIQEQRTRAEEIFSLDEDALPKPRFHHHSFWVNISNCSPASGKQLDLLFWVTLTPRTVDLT


Experiments:
[1] = biological target: T1, Human CDCP1, His Tag (KACTUS, Cat.No. …); assay: ELISA, plate-coated CDCP1 His Tag 0.5 ug/mL, four-parameter fit
[2] = biological target: T2, human CDCP1 endogenously expressed on …; assay: flow cytometry on HCT116 cells endogenously expressing human CDCP1
[3] = biological target: T2, human CDCP1 endogenously expressed on …; assay: cell-based or functional assay
[4] = biological target: T1, Human CDCP1, His Tag (KACTUS, Cat.No. …); assay: ELISA, plate-coated CDCP1 His Tag 0.5 ug/mL, four-parameter fit; remark: listed apart in the source
[5] = biological target: T2, human CDCP1 endogenously expressed on …; assay: flow cytometry on HCT116 cells endogenously expressing human CDCP1; remark: listed apart in the source
[6] = biological target: T2, human CDCP1 endogenously expressed on …; assay: flow cytometry on SW480 cells endogenously expressing human CDCP1
[7] = biological target: T2, human CDCP1 endogenously expressed on …; assay: flow cytometry on HCT116 cells endogenously expressing human CDCP1; remark: listed apart in the source
[8] = biological target: T1, Human CDCP1, His Tag (KACTUS, Cat.No. …); assay: ELISA, plate-coated Human CDCP1 His Tag 0.5 ug/mL, four-parameter fit
[9] = biological target: T2, human CDCP1 endogenously expressed on …; assay: cell-based or functional assay; remark: listed apart in the source
[10] = biological target: T3, rhesus monkey CDCP1, His Tag (KACTUS, …); assay: ELISA, plate-coated rhesus monkey CDCP1 His Tag 0.5 ug/mL, four-parameter fit
[11] = biological target: T2, human CDCP1 endogenously expressed on …; assay: flow cytometry on LNCaP cells endogenously expressing human CDCP1
[12] = biological target: T2, human CDCP1 endogenously expressed on …; assay: flow cytometry on HT-29 cells endogenously expressing human CDCP1

| Binder | EC50 [1] | Top [1] | bottom [1] | EC50 [2] | Top [2] | bottom [2] | further results |
| --- | --- | --- | --- | --- | --- | --- | --- |
| MHAB10-16-6 (Fc fusion, Humanized nanobody-Fc fusion, first round; MW printed 76kDa) EVQLVESGGGLVQPGGSLRLSCAASGSDVSANGMVWHRQAPGKQREWVAVISSSGSTNYADSVKGRFTISRDNSKNTMYLQMNSLRPEDTAVYLCGVAHYGQTYWGKGTLVTVSS[human IgG1 Fc with changes cut from this listing] | 4.56 ng/mL | 2.06 OD450 | 0.0557 OD450 | 0.0661 µg/mL | 63200 MFI | 1090 MFI |  |
| MHAB10-16-7 (Fc fusion, Humanized nanobody-Fc fusion, first round; MW printed 76kDa) EVQLVESGGGLVQPGGSLRLSCAASGSDVSANGMVWHRQAPGKQREWVAVISSSGSTNYADSVKGRFTISRDNSKNTMYLQMNSLRPEDTAVYYCGVAHYGQTYWGKGTLVTVSS[human IgG1 Fc with changes cut from this listing] | 4.85 ng/mL | 2.06 OD450 | 0.0492 OD450 | 0.0829 µg/mL | 62300 MFI | 1210 MFI | Bottom, endocytosis-mediated cell killing (Fab-ZAP, HCT116 cells) [3]: 14.2%; EC50 (pM), endocytosis-mediated cell killing (Fab-ZAP, HCT116 cells) [3]: 24.3 pM; Top, endocytosis-mediated cell killing (Fab-ZAP, HCT116 cells) [3]: 77.5% |
| MHAB10-16-8 (Fc fusion, Humanized nanobody-Fc fusion, first round; MW printed 76kDa) EVQLVESGGGLVQPGGSLRLSCAASGSDVSANGMVWHRQAPGKQREWVAVISSSGSTNYADSVKGRFTISRDSDKNTMYLQMNSLRPEDTAVYYCGVAHYGQTYWGKGTLVTVSS[human IgG1 Fc with changes cut from this listing] | 5.26 ng/mL | 2.06 OD450 | 0.0483 OD450 | 0.0781 µg/mL | 62200 MFI | 1010 MFI |  |
| MHAB10-16-14 (Fc fusion, Humanized nanobody-Fc fusion, second round) QLQLVESGGGLVQPGGSLRLSCAASGSDVSANGMVWHRQAPGKGREWVAVISSSGSTNYADSVKGRFTISRDSDKNTMYLQMNSLRPEDTAVYYCGVAHYGQTYWGKGTLVTVSS[human IgG1 Fc with changes cut from this listing] |  |  |  |  |  |  | EC50 [4]: 4.28 ng/mL; Top [4]: 1.58 OD450; bottom [4]: 0.0514 OD450; EC50 [5]: 0.0809 µg/mL; Top [5]: 52900 MFI; bottom [5]: 819 MFI; EC50 [6]: 0.0958 µg/mL; EC50 [7]: 0.139 µg/mL; EC50 [8]: 3.37 pM; EC50 (pM), endocytosis-mediated cell killing (Fab-ZAP, HCT116 cells) [9]: 21.7 pM; EC50 [10]: 4.05 pM; EC50 [11]: 0.206 µg/mL; EC50 [12]: 0.153 µg/mL |
